Some of the results follow.
B1: ENSG00000070961:be:win_4051|3pUTR|ENSG00000070961|bound_else_gene|NA|bound_elsewhere_windowed (ssRNA)
RNA: GGGAGUUCUACAGUCCGACGAUCAUUUCUGCUGUUGGCUGUUAAUAAUUUGGAUUAUUUAUGUUUAUAAAUGAUACAGAUCUGUUUACAAGGUUUGUAGAUACUUUUUUUGUUCCUGUUCAUAGAUGGGAAGCUUCCUUAUAACAACAGAGGAUUGAGCAUCA
B2: chr1:64777895:64778004:+|CDS|ENSG00000162437|unk|FALSE|bound_elsewhere (ssRNA)
RNA: GGGAGUUCUACAGUCCGACGAUCGGAUUUGUGGAAUACAUGAAAAAGGACUUUGCUGCAAAGGCUAGACUGGAGCUAUUGGGUAGACAGUUGGGAGCAUCAGCACUCUUUGCACAAUGGAUGGAUGUUAAUCUAUUGGCUUCACAACAGAGGAUUGAGCAUCA
B3: chr1:150960872:150960973:+|CDS|ENSG00000143379|unk|FALSE|unique (ssRNA)
RNA: GGGAGUUCUACAGUCCGACGAUCGGACUCCCACCCCCCAGAUCUUGGACCCCCACAUAUUCCUGUUCCUCCCUCAAUCCCUGUAGGUGGCUGCAAUCCACCUUCCUCCGAAGAGACACCCAAGAACAAGGUGGCCUCAUGGUUCAACAGAGGAUUGAGCAUCA
B4: chr17:48058596:48058697:+|CDS|ENSG00000082641|msi1|total|mutant (ssRNA)
RNA: GGGAGUUCUACAGUCCGACGAUCCAAUGGCACAGCCAAUGACACAGCAGGCCCAGAGCUGCCUGACCCUUUGGGGGGUCUGUCCGAUGAAGCUAUGUUGGAUGAGAUCAGCCUUAUGGACCUGGCCAUUGAAGAAGGCUUUAACAACAGAGGAUUGAGCAUCA
B5: ENSG00000136451:be:win_1|CDS|ENSG00000136451|bound_else_gene|NA|bound_elsewhere_windowed (ssRNA)
RNA: GGGAGUUCUACAGUCCGACGAUCAUGGAGGCCAACUGGACCGCGUUCCUGUUCCAGGCCCAUGAAGCUUCCCAUCACCAACAGCAGGCAGCACAGAACAGCUUGCUGCCCCUCCUGAGCUCUGCCGUGGAGCCCCCUGAUCAGCAACAGAGGAUUGAGCAUCA
B6: chr12:16548371:16551327:-|three_prime_utr|ENSG00000048540|control|control|control (ssRNA)
RNA: GGGAGUUCUACAGUCCGACGAUCCAUUCUUUUAUCUUUUUUGCUCCACAUGUACAUAAGAAUUGACACAGGAACCUACUGAAUAGCGUAGAUAUAGGAAGGCAGGAUGGUUAUAUGGAAUAAAAGGCGGACUGCAUCUGUAUGCAACAGAGGAUUGAGCAUCA
B7: ENSG00000148488:stop:overlap|stop_codon|ENSG00000148488|stop_codon|NA|stop_codon (ssRNA)
RNA: GGGAGUUCUACAGUCCGACGAUCAAGAGUCUAAAGCAAGACAAAAGUGCAAAACAAAAAGAAAAACUAUAAACUCCAUCUUGUAGAUUUGUAGAUUCGCCACAACCAAGUCUGACUGUGACACUCCCAAGAAAUCUGUAUGUACAACAGAGGAUUGAGCAUCA
B8: chr6:30541380:30546071:-|three_prime_utr|ENSG00000204590|control|control|control (ssRNA)
RNA: GGGAGUUCUACAGUCCGACGAUCCUGACCUGGGGGUAUCUCCCCUCUGCCACCCCAAUUGUGAAUAAAGAUUGUUUGCUUUGUAGCCCCUUCCCCAGAUGAACUGAGGUGAGAGCGGCUGUUCCAGGCUAACAGCUGUGGGAGCAACAGAGGAUUGAGCAUCA
B9: ENSG00000198589:be:win_3851|CDS|ENSG00000198589|bound_else_gene|NA|bound_elsewhere_windowed (ssRNA)
RNA: GGGAGUUCUACAGUCCGACGAUCGGCAAGGAAUAGCACCAGAUGCAGUUAAUGGACAAAGGAGGGAUUCCAGAUCUACUGUGUUUCGUAUUCCUGAGUUCAACUGGUCUCAGAUGCAUCAACGUUUGCUCACUGAUCUAUUAUCAACAGAGGAUUGAGCAUCA
B10: chr3:31579932:31580050:+|CDS|ENSG00000163527|unk|total|mutant (ssRNA)
RNA: GGGAGUUCUACAGUCCGACGAUCUACAUCUAUAUCUACUUUCCUGCUUACAAGAGAACUUUGGAACCAAGGAGCAGGACUUUCCGCUGCUUGUUUUAUUGCUAUUGUACCAGGCUACAUAUCUCGGUCAGCCGCUGGAUCCUUCAACAGAGGAUUGAGCAUCA
B11: chrX:40074726:40074839:-|CDS|ENSG00000183337|unk|FALSE|unique (ssRNA)
RNA: GGGAGUUCUACAGUCCGACGAUCGCGCUGGGCUUGGACAGGCCUGCCAGCGACAAACAGAGCCCUCUCAACAUCAAUGGUGCUAGUUAUCUGCGGCUGCCCUGGGUCAAUCCUUACAUGGAGGGUGCCACGCCAGCCAUCUACCAACAGAGGAUUGAGCAUCA
B12: ENSG00000034677:stop:overlap|stop_codon|ENSG00000034677|stop_codon|NA|stop_codon (ssRNA)
RNA: GGGAGUUCUACAGUCCGACGAUCCAAAUAACAACCACUCACAUCAGACAAUGGAAUUAAAAGUUGCAAUUCAGACUGAAAUUUAGGCCCAUAAAUGCUGCAGAAUAAUUACCACUGUACAACCGUGUUUGGAGCUGGUUGAACCAACAGAGGAUUGAGCAUCA
B13: chr8:23843870:23844003:-|3pUTR|ENSG00000159167|msi1|total|mutant (ssRNA)
RNA: GGGAGUUCUACAGUCCGACGAUCAAUUCCAGAGGACUCUGCUUAAACAAAGCAGUAUAUAAUAACUUUAUUGCAUACCGAUUCCGUUUUGUAACUCCGCUUUAUUUUUCUUUUCCUGGGAAUGGAAUAACUAUCUCACUUCCACAACAGAGGAUUGAGCAUCA
B14: chr1:9850293:9850394:-|3pUTR|ENSG00000178585|unk|total|mutant (ssRNA)
RNA: GGGAGUUCUACAGUCCGACGAUCCGGUAUCUGGCUUCCCUGGAAGCUCUCCGAGCUCUGGUGCUUCCGUCCGGUCAUUUUUUCCGAAAUGUGAAGAGGUCUGAUUGGCUGCUUAAACUGGAAAGGAUCUGUGAUUGGCUGGUUCAACAGAGGAUUGAGCAUCA
B15: chr8:41263332:41263433:-|3pUTR|ENSG00000104332|msi1|total|mutant (ssRNA)
RNA: GGGAGUUCUACAGUCCGACGAUCCAGCAUGCCCGCCCCGUUACCUACCGGAGAGUUAUCCUGAUAAAUUAACCUCUCACAGUCCGUGAUCCUGUCCUUUUAACACCUUUUUUGUGGGGUUCUCUCUGACCUUUCAUCGUAAAGCAACAGAGGAUUGAGCAUCA
B16: ENSG00000198589:be:win_851|CDS|ENSG00000198589|bound_else_gene|NA|bound_elsewhere_windowed (ssRNA)
RNA: GGGAGUUCUACAGUCCGACGAUCAAGGCUUUCAACACUGUGUGAAAUUUGAUUUCAAGCCACAAAAGUGGUAUAUGGUUACCAUAGUACACAUCUAUAACCGAUGGAAGAAUAGUGAACUUCGAUGUUAUGUGAAUGGUGAGCCAACAGAGGAUUGAGCAUCA
B17: chr6:150018333:150018855:-|three_prime_utr|ENSG00000155918|control|control|control (ssRNA)
RNA: GGGAGUUCUACAGUCCGACGAUCACCACCUACGGUGUAUGUCCAGCAGCCUCCAGCAGAUGAUGAUGACACCAUGGACCCAAUAGCUCAUUCACUGCCUUGAUUCCUUUUGCCAACAAUUUAACCAGUGAUUAUUCCUAACAUCAACAGAGGAUUGAGCAUCA
B18: chr10:60026297:60029826:-|three_prime_utr|ENSG00000151150|control|control|control (ssRNA)
RNA: GGGAGUUCUACAGUCCGACGAUCAAUGGCAUGAUUUUUUUUAUGCAAAAAGAAAAGAAAAGAAAACCACCCACAUUUUAAUUUAGCAUGAGCCAAUUUACAGAGCAUGGAAAUCACUUUCAUUUCCGGAUUGGCGCGUGUGCACAACAGAGGAUUGAGCAUCA
B19: chr13:106491723:106491923:-|3pUTR|ENSG00000125266|msi1|FALSE|unique (ssRNA)
RNA: GGGAGUUCUACAGUCCGACGAUCCAGACUCAGCUGCUAUACUUAUCACAUUUUAUUAAACACAGGGAAAGCAUUUAGGAGAAUAGCAGAGAGCCAAAUCUGACCUAAAAGUUGAAAAGCCAAAGGUCAAACAGGCUGUAAUUCCAACAGAGGAUUGAGCAUCA
B20: ENSG00000105894:stop:overlap|stop_codon|ENSG00000105894|stop_codon|NA|stop_codon (ssRNA)
RNA: GGGAGUUCUACAGUCCGACGAUCCCAAACCUCAAGAGAAGGGAAAAUGGAGACACAGGAGUGGGGAGAGUUUGAGAAGAUGGUAGAGAGGAGUGUUUGGGUGAAGGGAGAUGGAUUCGUCUACUGAUGCAACUGCAGAAUCUACAACAGAGGAUUGAGCAUCA
B21: ENSG00000163346:stop:overlap|stop_codon|ENSG00000163346|stop_codon|NA|stop_codon (ssRNA)
RNA: GGGAGUUCUACAGUCCGACGAUCAGAGCCUGCCUUCAACCCCCAAAGCAGUCACCUCACUGCCCUGUCCCUGUCCUUUCCCCUAGCUUGGAUCAGGGAGGAGGGCCGCUGCUCCAGCAGUGACGAUGACACCGACGUGGACAUCAACAGAGGAUUGAGCAUCA
B22: chr17:35577220:35577322:-|CDS|ENSG00000108733|unk|total|mutant (ssRNA)
RNA: GGGAGUUCUACAGUCCGACGAUCUCUAUUAUGUUCCUGGUUCUUCUUCCCUAUCUGAAAGUGAAGCUGGAGAAGCUGGUUUCCCGCCUGAGAGAAGAGGAUGAAUAUUCUAUUCAUCCCCCUUCUUCCCGCUGGAAACGAUUUCAACAGAGGAUUGAGCAUCA

The binders below were run against T1, UNK ZnF1-6 (called full-length) (human, UniProt Q9C0B0 30-357) (assay: nsRBNS (natural sequence RNA bind-n-seq); RBNS binding buffer (assumed for nsRBNS): 25 mM Tris pH 7.5, 150 mM KCl, 3 mM MgCl2, 0.01% Triton X-100, 500 ug/ml BSA, 20 U/ml SUPERase-In, 4 C; UNK is unkempt and MSI1 is Musashi-1; names of the RNAs are library labels; protein concentration not given here; high values mean tight binding).
T1 sequence: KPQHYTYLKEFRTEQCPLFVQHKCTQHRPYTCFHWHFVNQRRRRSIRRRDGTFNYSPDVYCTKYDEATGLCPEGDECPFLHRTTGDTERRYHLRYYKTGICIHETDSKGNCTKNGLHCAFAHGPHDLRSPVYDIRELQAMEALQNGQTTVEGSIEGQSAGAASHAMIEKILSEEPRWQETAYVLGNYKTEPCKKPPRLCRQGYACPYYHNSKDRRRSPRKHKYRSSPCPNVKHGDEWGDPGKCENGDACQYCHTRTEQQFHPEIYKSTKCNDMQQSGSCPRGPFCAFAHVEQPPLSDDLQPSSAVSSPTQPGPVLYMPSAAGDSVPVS

| Binder | binding signal [enrichment R] |
| --- | --- |
| B1 | 0.658 |
| B2 | 0.595 |
| B3 | 0.698 |
| B4 | 0.557 |
| B5 | 0.911 |
| B6 | 0.9 |
| B7 | 0.503 |
| B8 | 0.746 |
| B9 | 0.479 |
| B10 | 0.508 |
| B11 | 0.855 |
| B12 | 1.15 |
| B13 | 0.614 |
| B14 | 0.643 |
| B15 | 0.75 |
| B16 | 0.342 |
| B17 | 0.612 |
| B18 | 0.342 |
| B19 | 1.53 |
| B20 | 0.894 |
| B21 | 0.735 |
| B22 | 0.429 |

From article PMC12136788
